# This is a noisy data set.
# Experiment: amyloid nucleation score relative to library mode (yeast Sup35 reporter selection) (log enrichment difference); higher = more amyloid nucleation; sequences are the first 22 residues of the Bri2 peptide extended by up to 12 random residues
# Details: random library (experiment): 1;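 active = nucleation score significantly above 0 at FDR 0.05; inactive = not significantly above 0 or absent from output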
# Procedure: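 Random C-terminal extensions of the 22-aa Bri2 peptide by 12 NNK codons; premature stops give shorter extensions. Peptides were fused to the Sup35 nucleation domain in S. cerevisiae [psi-pin-] and selected on -ADE-URA plates for 7 d at 30 °C. The nucleation score is log(output/input), centred to the mode of each of 3 independent libraries (1 input, 3 technical output replicates), with duplicates merged. Sequences absent from the output ('random_non_nuc') were imputed with the library mode value, so they are given as censored (<). Nucleators are scores significantly >0 at FDR 0.05.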
# 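Note: [psi-pin-] Saccharomyces cerevisiae expressing SupN fusions, induced by 100 µM Cu2SO4, selected 7 d at 30 °C without adenine and uracil, scored by deep sequencing of output versus input.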
row,Sequence,amyloid nucleation score
1,EASNCFAIRHFENKFAVETLICCRFRRACTFFDF,inactive
2,EASNCFAIRHFENKFAVETLICCRG,inactive
3,EASNCFAIRHFENKFAVETLICCRGAGLVSPSVC,inactive
4,EASNCFAIRHFENKFAVETLICCRHG,0.655
5,EASNCFAIRHFENKFAVETLICCRIWLADVCSNL,inactive
6,EASNCFAIRHFENKFAVETLICCRKERVVWVAPW,inactive
7,EASNCFAIRHFENKFAVETLICCRKMPCKPCCIA,inactive
8,EASNCFAIRHFENKFAVETLICCRKTCCYVRLA,inactive
9,EASNCFAIRHFENKFAVETLICCRL,2.94
10,EASNCFAIRHFENKFAVETLICCRLCLCREVTAT,0.12
11,EASNCFAIRHFENKFAVETLICCRLKLHTYVNRT,inactive
12,EASNCFAIRHFENKFAVETLICCRLKTVRVSVSG,inactive
13,EASNCFAIRHFENKFAVETLICCRLNHVREQDR,1.81
14,EASNCFAIRHFENKFAVETLICCRMETKTHVYWM,inactive
15,EASNCFAIRHFENKFAVETLICCRTSKPPVGTSF,inactive
16,EASNCFAIRHFENKFAVETLICCRTVVWRMQVVR,inactive
17,EASNCFAIRHFENKFAVETLICCRWNEHAGCGAV,inactive
18,EASNCFAIRHFENKFAVETLICCRWNVEHRLLTQ,inactive
19,EASNCFAIRHFENKFAVETLICCRYAISSVCVGH,inactive
20,EASNCFAIRHFENKFAVETLICCSADYWSDALLV,5.81

# Same assay, conditions: random library (experiment): 2
row,Sequence,amyloid nucleation score
1,EASNCFAIRHFENKFAVETLICCRFIFTLVMEHC,inactive
2,EASNCFAIRHFENKFAVETLICCRFVS,2.77
3,EASNCFAIRHFENKFAVETLICCRGHTCTSTFGA,4.83
4,EASNCFAIRHFENKFAVETLICCRKIFWSTTFCS,inactive
5,EASNCFAIRHFENKFAVETLICCRKLVYVMGFQG,inactive
6,EASNCFAIRHFENKFAVETLICCRRVILLPFQRI,inactive
7,EASNCFAIRHFENKFAVETLICCRSPVTM,inactive
8,EASNCFAIRHFENKFAVETLICCRSVSLSLFVGR,6.35
9,EASNCFAIRHFENKFAVETLICCRVHHLSCVSLM,2.91
10,EASNCFAIRHFENKFAVETLICCRVKL,inactive
11,EASNCFAIRHFENKFAVETLICCRVMNNVLLG,2.87
12,EASNCFAIRHFENKFAVETLICCRVNLSC,5.98
13,EASNCFAIRHFENKFAVETLICCRVSMERGRRPM,inactive
14,EASNCFAIRHFENKFAVETLICCRWKGVVVSEAN,2.55
15,EASNCFAIRHFENKFAVETLICCRYIWIGRISEL,3.26
16,EASNCFAIRHFENKFAVETLICCS,5.76
17,EASNCFAIRHFENKFAVETLICCSAEHSCTWFTH,8.15

# Same assay, conditions: random library (experiment): 3
row,Sequence,amyloid nucleation score
1,EASNCFAIRHFENKFAVETLICCRGAKWSRRHQS,inactive
2,EASNCFAIRHFENKFAVETLICCRHSWP,6.39
3,EASNCFAIRHFENKFAVETLICCRILRSGEMSPC,inactive
4,EASNCFAIRHFENKFAVETLICCRLSFCHVNGKS,5.93
5,EASNCFAIRHFENKFAVETLICCRLVYQNVLVGS,inactive
6,EASNCFAIRHFENKFAVETLICCRMNVVGQWFEI,5.43
7,EASNCFAIRHFENKFAVETLICCRPWGDCRNASR,3.25
8,EASNCFAIRHFENKFAVETLICCRRRRAYSAVWR,inactive
9,EASNCFAIRHFENKFAVETLICCRVCLFNCATYS,4.52
10,EASNCFAIRHFENKFAVETLICCRVMAFGFDYYN,4.72
11,EASNCFAIRHFENKFAVETLICCRYWKSRAILCH,inactive
